# The list shows a part of the results.
# Experiments:
# Assay in all cases: glycan array binding signal (z-score within array); higher = stronger binding
# Conditions in all cases: glycan notation: IUPAC condensed, linker removed; mutation: R186I
# [1] = biological target: Gal(b1-3)GalNAc(a1-3)[Fuc(a1-2)]Gal(b1-4)GlcNAc
# Method in brief: (§1)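 The binding signal is a Z-score computed within each array. Data were drawn from 3228 arrays in the Consortium for Functional Glycomics database, restricted to those with a known protein sequence. Scores were averaged over arrays of the same protein sequence at different concentrations or buffers, and over linkers, and negative values can be taken as non-binding.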
# [2] = biological target: Gal(b1-3)GalNAc(b1-3)Gal(a1-4)Gal(b1-4)Glc
# Method in brief: as §1
# [3] = biological target: Gal(b1-3)GalNAc(b1-4)Gal(b1-4)Glc
# Method in brief: as §1
# [4] = biological target: Gal(b1-3)GalNAc(b1-4)[Neu5Ac(a2-3)]Gal(b1-4)Glc
# Method in brief: as §1
# Gal(b1-3)GlcNAc = biological target: Gal(b1-3)GlcNAc
# Method in brief: as §1
# [5] = biological target: Gal(b1-3)GlcNAc(a1-6)Gal(b1-4)GlcNAc
# Method in brief: as §1
# [6] = biological target: Gal(b1-3)GlcNAc(b1-2)Man(a1-3)[Gal(b1-3)GlcNAc(b1-2)Man(a1-6)]Man(b1-4)GlcNAc(b1-4)GlcNAc
# Method in brief: as §1
# [7] = biological target: Gal(b1-3)GlcNAc(b1-2)Man(a1-3)[Gal(b1-3)GlcNAc(b1-2)Man(a1-6)]Man(b1-4)GlcNAc(b1-4)[Fuc(a1-6)]GlcNAc
# Method in brief: as §1
# [8] = biological target: Gal(b1-3)GlcNAc(b1-3)Gal(b1-3)GlcNAc
# Method in brief: as §1
# [9] = biological target: Gal(b1-3)GlcNAc(b1-3)Gal(b1-4)Glc
# Method in brief: as §1
# [10] = biological target: Gal(b1-3)GlcNAc(b1-3)Gal(b1-4)GlcNAc
# Method in brief: as §1
# [11] = biological target: Gal(b1-3)GlcNAc(b1-3)Gal(b1-4)GlcNAc(b1-6)[Gal(b1-3)GlcNAc(b1-3)]Gal(b1-4)Glc
# Method in brief: as §1
# [12] = biological target: Gal(b1-3)GlcNAc(b1-3)Gal(b1-4)[Fuc(a1-3)]GlcNAc(b1-6)[Gal(b1-3)GlcNAc(b1-3)]Gal(b1-4)Glc
# Method in brief: as §1
# [13] = biological target: Gal(b1-3)GlcNAc(b1-3)GalNAc
# Method in brief: as §1
# [14] = biological target: Gal(b1-3)GlcNAc(b1-6)Gal(b1-4)GlcNAc
# Method in brief: as §1
# [15] = biological target: Gal(b1-3)[Fuc(a1-4)]GlcNAc
# Method in brief: as §1
# [16] = biological target: Gal(b1-3)[Fuc(a1-4)]GlcNAc(b1-2)Man(a1-3)[Gal(b1-3)[Fuc(a1-4)]GlcNAc(b1-2)Man(a1-6)]Man(b1-4)GlcNAc(b1-4)GlcNAc
# Method in brief: as §1
# [17] = biological target: Gal(b1-3)[Fuc(a1-4)]GlcNAc(b1-2)Man(a1-3)[Gal(b1-3)[Fuc(a1-4)]GlcNAc(b1-2)Man(a1-6)]Man(b1-4)GlcNAc(b1-4)[Fuc(a1-6)]GlcNAc
# Method in brief: as §1
# [18] = biological target: Gal(b1-3)[Fuc(a1-4)]GlcNAc(b1-3)Gal(b1-3)[Fuc(a1-4)]GlcNAc
# Method in brief: as §1
# [19] = biological target: Gal(b1-3)[Fuc(a1-4)]GlcNAc(b1-3)Gal(b1-4)GlcNAc
# Method in brief: as §1
# [20] = biological target: Gal(b1-3)[Fuc(a1-4)]GlcNAc(b1-3)Gal(b1-4)[Fuc(a1-3)]GlcNAc
# Method in brief: as §1
# [21] = biological target: Gal(b1-3)[GlcNAc(b1-6)]GalNAc
# Method in brief: as §1
# [22] = biological target: Gal(b1-3)[Neu5Ac(a2-6)]GalNAc
# Method in brief: as §1
# [23] = biological target: Gal(b1-3)[Neu5Ac(a2-6)]GlcNAc(b1-6)Gal(b1-4)Glc
# Method in brief: as §1
# [24] = biological target: Gal(b1-3)[Neu5Ac(b2-6)]GalNAc
# Method in brief: as §1
# [25] = biological target: Gal(b1-4)GalNAc(a1-3)[Fuc(a1-2)]Gal(b1-4)GlcNAc
# Method in brief: as §1
# [26] = biological target: Gal(b1-4)GalNAc(b1-3)[Fuc(a1-2)]Gal(b1-4)GlcNAc
# Method in brief: as §1
# Gal(b1-4)Glc = biological target: Gal(b1-4)Glc
# Method in brief: as §1
# Gal(b1-4)Glc6S = biological target: Gal(b1-4)Glc6S
# Method in brief: as §1
# Gal(b1-4)GlcNAc = biological target: Gal(b1-4)GlcNAc
# Method in brief: as §1
# [27] = biological target: Gal(b1-4)GlcNAc(a1-6)Gal(b1-4)GlcNAc
# Method in brief: as §1
# [28] = biological target: Gal(b1-4)GlcNAc(b1-2)Man(a1-3)Man(b1-4)GlcNAc(b1-4)GlcNAc
# Method in brief: as §1
# [29] = biological target: Gal(b1-4)GlcNAc(b1-2)Man(a1-3)[Gal(b1-4)GlcNAc(b1-2)Man(a1-6)]Man(b1-4)GlcNAc(b1-4)GlcNAc
# Method in brief: as §1
# [30] = biological target: Gal(b1-4)GlcNAc(b1-2)Man(a1-3)[Gal(b1-4)GlcNAc(b1-2)Man(a1-6)]Man(b1-4)GlcNAc(b1-4)[Fuc(a1-6)]GlcNAc
# Method in brief: as §1
# [31] = biological target: Gal(b1-4)GlcNAc(b1-2)Man(a1-3)[GlcNAc(b1-2)Man(a1-6)]Man(b1-4)GlcNAc(b1-4)GlcNAc
# Method in brief: as §1
# [32] = biological target: Gal(b1-4)GlcNAc(b1-2)Man(a1-3)[Man(a1-6)]Man(b1-4)GlcNAc(b1-4)GlcNAc
# Method in brief: as §1
# [33] = biological target: Gal(b1-4)GlcNAc(b1-2)Man(a1-6)Man(b1-4)GlcNAc(b1-4)GlcNAc
# Method in brief: as §1
binder,measurement,setting,value
"Gal 3 (Homo sapiens), P17931 (protein) MADNFSLHDALSGSGNPNPQGWPGAWGNQPAGAGGYPGASYPGAYPGQAPPGAYPGQAPPGAYHGAPGAYPGAPAPGVYPGPPSGPGAYPSSGQPSAPGAYPATGPYGAPAGPLIVPYNLPLPGGVVPRMLITILGTVKPNANILDFQRGNDVAFHFNPRFNENNRRVIVCNTKLDNNWGREEIQSVFPFESGKPFKIQVLVEPDHFKVAVNDAHLLQYNHRVKKLNEISKLGISGDIDLTSASYTMI",glycan array binding signal (z-score),[1],-0.146
same,glycan array binding signal (z-score),[2],-0.141
same,glycan array binding signal (z-score),[3],-0.075
same,glycan array binding signal (z-score),[4],-0.192
same,glycan array binding signal (z-score),Gal(b1-3)GlcNAc,-0.177
same,glycan array binding signal (z-score),[5],-0.13
same,glycan array binding signal (z-score),[6],-0.191
same,glycan array binding signal (z-score),[7],-0.104
same,glycan array binding signal (z-score),[8],-0.19
same,glycan array binding signal (z-score),[9],0.072
same,glycan array binding signal (z-score),[10],-0.166
same,glycan array binding signal (z-score),[11],-0.189
same,glycan array binding signal (z-score),[12],-0.002
same,glycan array binding signal (z-score),[13],-0.14
same,glycan array binding signal (z-score),[14],-0.173
same,glycan array binding signal (z-score),[15],-0.174
same,glycan array binding signal (z-score),[16],-0.173
same,glycan array binding signal (z-score),[17],-0.145
same,glycan array binding signal (z-score),[18],-0.132
same,glycan array binding signal (z-score),[19],-0.167
same,glycan array binding signal (z-score),[20],-0.184
same,glycan array binding signal (z-score),[21],-0.128
same,glycan array binding signal (z-score),[22],-0.186
same,glycan array binding signal (z-score),[23],0.101
same,glycan array binding signal (z-score),[24],-0.066
same,glycan array binding signal (z-score),[25],-0.15
same,glycan array binding signal (z-score),[26],-0.185
same,glycan array binding signal (z-score),Gal(b1-4)Glc,-0.176
same,glycan array binding signal (z-score),Gal(b1-4)Glc6S,-0.082
same,glycan array binding signal (z-score),Gal(b1-4)GlcNAc,-0.142
same,glycan array binding signal (z-score),[27],-0.165
same,glycan array binding signal (z-score),[28],0.022
same,glycan array binding signal (z-score),[29],-0.039
same,glycan array binding signal (z-score),[30],-0.19
same,glycan array binding signal (z-score),[31],0.079
same,glycan array binding signal (z-score),[32],-0.162
same,glycan array binding signal (z-score),[33],0.13
